Kd data for one molecule are collected here from paper PMC8429438, “DnaJC7 binds natively folded structural elements in tau to inhibit amyloid formation” (Nature Communications, 2021).

The target of the assay is T1, DnaJC7 (full-length, wild type, recombinant) (UniProt Q99615 1-494).
T1 construct: DnaJC7, class-C J-domain protein with TPR1, TPR2a, TPR2b and a C-terminal J domain; called full-length DnaJC7; Plasmid was a gift (A. Joachimiak); also called DnaJC7WT; WT DnaJC7
T1 sequence (looked up): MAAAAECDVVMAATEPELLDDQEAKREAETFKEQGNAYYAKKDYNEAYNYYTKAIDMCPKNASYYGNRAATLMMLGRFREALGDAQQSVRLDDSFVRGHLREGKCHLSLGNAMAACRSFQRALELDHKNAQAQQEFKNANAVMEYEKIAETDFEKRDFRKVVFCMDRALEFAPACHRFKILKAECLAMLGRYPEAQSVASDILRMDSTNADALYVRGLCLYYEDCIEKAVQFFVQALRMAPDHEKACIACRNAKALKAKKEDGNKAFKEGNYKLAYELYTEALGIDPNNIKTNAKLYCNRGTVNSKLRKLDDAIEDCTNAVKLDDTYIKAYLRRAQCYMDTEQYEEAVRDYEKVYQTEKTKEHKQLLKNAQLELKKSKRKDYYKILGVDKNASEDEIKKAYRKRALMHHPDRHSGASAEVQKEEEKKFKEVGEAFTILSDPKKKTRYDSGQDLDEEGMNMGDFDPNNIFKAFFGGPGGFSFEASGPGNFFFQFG
Description: MST; Cy5-labelled wild-type or mutant tau/tauRD titrated with a serial two-fold dilution of DnaJC7 or single DnaJC7 domains; Monolith NT.115; technical triplicates; fit in PALMIST with a 1:1 binding model. To be noted: both partners purified.

B1: tau N-terminal fragment (N-term, […]) (domain or fragment)
chain: not shown
modifications: Cy5 (Cyanine5 NHS ester) label in MST
notes: N-terminus of tau, […] (of full-length 2N4R tau); also called N-terminus
Take B1: the Kd amounted to 17 ± 4 µM.
